# Laboratory results published in PubChem BioAssay (NCATS).
# Several values for one entry are separate records, joined by “and”; a condition that tells them apart may be missing. Equal entries are not always repeated. Inconclusive results, whose numbers are uncertain, are shown with a selection of clear calls. For part of these data: Potencies of inconclusive entries are left out as doubtful fits. For part of these data: “Side channel” marks fits to a control or component signal instead of the main read-out. More than one record can exist for a structure, and the calls need not agree. Activity calls are given as the source filed them. Unless noted, the call rests on the fitted dose curve; in most records, active means well fitted curve in the direction sought with a large enough effect; inconclusive means small, poorly fitted or top-dose-only effect, or another doubt; inactive means no such curve, though single readings can be large; an effect the other way counts as inactive or inconclusive.
# Tests used:
# [1] = Quantitative high throughput screen for delayed death inhibitors of the malarial parasite plastid, 48 hour incubation (AID 488752); further: nearly all actives have a fitted effect of over 65% in size; further: potency means the concentration at half of the fitted maximal effect; on activity change, negative = inhibition: on the % scale 0 is the no-effect control and ±100 the full control effect
# Procedure, shortened: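 First, compound was pinned into RPMI 1640 medium containing 0.5% Albumax. Next, reporter-parasite-infected erythrocytes were added to 2% hematocrit and 0.1% parasitemia. After 48 h at 37 C under 5% CO2, luciferase detection reagent was added and luminescence read.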
# [2] = molecular target: M-phase phosphoprotein 8 (Homo sapiens) (UniProt Q99549); assay: qHTS Validation Assay for Inhibitors for MPP8 Chromodomain Interactions with Methylated Histone Tails (AID 488949); settings: AlphaScreen MPP8 binding to H3K9me3 peptide; activity change, negative = inhibition: at 57.1 µM (top of the series) unless noted; further: nearly all actives have a fitted effect of over 55% in size; further: potency means the concentration at half of the fitted maximal effect;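 on activity change, negative = inhibition: AlphaScreen signal from MPP8 chromodomain bound to biotinylated H3K9me3 peptide; top concentration of the series differs between compounds; on the % scale 0 is the no-effect control and ±100 the full control effect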
# UniProt Q99549, sequence (Q99549 whole entry, looked up): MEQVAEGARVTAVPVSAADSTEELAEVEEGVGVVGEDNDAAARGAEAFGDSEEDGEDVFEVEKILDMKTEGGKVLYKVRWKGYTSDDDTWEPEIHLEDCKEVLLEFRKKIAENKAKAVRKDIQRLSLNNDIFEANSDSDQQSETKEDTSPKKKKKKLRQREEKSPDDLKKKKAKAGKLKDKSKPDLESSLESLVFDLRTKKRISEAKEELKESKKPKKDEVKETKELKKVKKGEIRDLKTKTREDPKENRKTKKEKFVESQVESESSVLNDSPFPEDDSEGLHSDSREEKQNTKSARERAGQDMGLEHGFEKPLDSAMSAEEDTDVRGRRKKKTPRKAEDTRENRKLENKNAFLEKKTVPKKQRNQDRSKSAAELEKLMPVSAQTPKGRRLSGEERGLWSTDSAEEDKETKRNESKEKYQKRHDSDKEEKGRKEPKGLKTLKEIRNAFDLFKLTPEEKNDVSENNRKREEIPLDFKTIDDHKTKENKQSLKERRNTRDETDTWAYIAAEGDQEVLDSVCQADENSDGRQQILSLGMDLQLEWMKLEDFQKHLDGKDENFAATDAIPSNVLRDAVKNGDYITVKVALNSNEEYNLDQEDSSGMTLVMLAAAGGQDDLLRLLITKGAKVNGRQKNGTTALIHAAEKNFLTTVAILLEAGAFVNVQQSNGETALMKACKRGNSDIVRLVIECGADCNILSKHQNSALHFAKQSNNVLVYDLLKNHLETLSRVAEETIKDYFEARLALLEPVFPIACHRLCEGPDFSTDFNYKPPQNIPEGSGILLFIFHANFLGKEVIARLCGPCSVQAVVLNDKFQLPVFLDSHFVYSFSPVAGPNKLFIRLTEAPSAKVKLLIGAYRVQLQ
# Procedure, shortened: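 AlphaScreen read-out: streptavidin donor and nickel chelate acceptor beads (final 10 ug/mL), 30 min in the dark at RT. Complex of 50 nM MPP8 and 50 nM b-H3(1-18)K9me3 peptide had been exposed to compounds for 30 min beforehand.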
# [3] = molecular target: D(1A) dopamine receptor (Homo sapiens) (UniProt P21728); assay: HTS Assay for Allosteric Agonists of the Human D1 Dopamine Receptor: Primary Screen for Antagonists (AID 488983); settings: D1 receptor cell assay, antagonist mode, qHTS titration; activity change, negative = inhibition: at 41.8 µM (top of the series);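 further: calcium flux response to an EC80 dopamine challenge measured with no-wash dye; nearly all actives have a fitted effect of over 65% in size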; further: potency means the concentration at half of the fitted maximal effect; on activity change, negative = inhibition: on the % scale 0 is the no-effect control and ±100 the full control effect
# UniProt P21728, sequence (P21728 whole entry, looked up): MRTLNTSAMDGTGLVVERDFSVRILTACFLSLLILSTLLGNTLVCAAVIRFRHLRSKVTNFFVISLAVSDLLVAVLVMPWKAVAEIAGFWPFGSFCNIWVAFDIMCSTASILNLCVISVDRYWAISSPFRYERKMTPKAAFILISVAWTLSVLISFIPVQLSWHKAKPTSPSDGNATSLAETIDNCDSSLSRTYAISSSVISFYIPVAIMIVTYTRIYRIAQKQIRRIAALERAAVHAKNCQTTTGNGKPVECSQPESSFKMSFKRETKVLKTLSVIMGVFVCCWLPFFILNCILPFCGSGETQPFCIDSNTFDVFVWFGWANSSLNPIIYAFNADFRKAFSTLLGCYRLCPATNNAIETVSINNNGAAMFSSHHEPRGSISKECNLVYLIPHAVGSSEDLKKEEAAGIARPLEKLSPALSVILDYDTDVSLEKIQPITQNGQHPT
# Procedure, shortened: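 Kinetic fluorescence at 1 cycle/sec tracked intracellular calcium in force-coupled, tetracycline-inducible HEK293 T-REx D1 cells. Loss of response to an EC80 dopamine dose, given 180 s after compound, marked antagonists.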
# [4] = qHTS Validation Assay to Find Inhibitors of Chronic Active B-Cell Receptor Signaling (AID 485345; active means well fitted curve in the direction sought with a large enough effect in the main read-out, with a control signal flat, not every such curve was filed as active; inconclusive means small, poorly fitted or top-dose-only effect, or effect the other way, or a change in a side signal; inactive means no such curve, though single readings can be large or run the other way;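 further: 0% = untreated basal cells and 100% = 10 µM MG-132 proteasome inhibitor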); settings: ABC-DLBCL cells, chronic BCR signaling reporter; activity change: CBG luciferase, at 46.1 µM (top of the series)
# Procedure, shortened: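 TMD8 ABC-DLBCL cells with dox-inducible green luciferase–IκBα fusion and red native luciferase; compounds 46 uM–3 nM, 4 h at 37C with doxycycline in 0.5% FBS IMDM. Green/red ratio normalized to basal and 10 uM MG-132.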
# [5] = molecular target: Peptidyl-prolyl cis-trans isomerase NIMA-interacting 1 (Homo sapiens) (UniProt Q13526); assay: qHTS Validation Assay to Find Inhibitors of Pin1 (AID 504536; active means well fitted inhibition curve with a large enough effect in the polarisation, with a control signal flat, not every such curve was filed as active; inconclusive means small, poorly fitted or top-dose-only effect, or effect the other way; the % refers to the polarisation; further: potency means the concentration at half of the fitted maximal effect)
# UniProt Q13526, sequence (Q13526 whole entry, looked up): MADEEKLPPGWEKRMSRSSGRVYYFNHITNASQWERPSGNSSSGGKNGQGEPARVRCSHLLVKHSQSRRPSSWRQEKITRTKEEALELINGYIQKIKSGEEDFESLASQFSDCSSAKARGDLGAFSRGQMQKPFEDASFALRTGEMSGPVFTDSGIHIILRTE
# Procedure, shortened: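 Fluorescence polarization competition: compounds (titration) displace HiFluor-488-labeled Pin1-1b peptide from Pin1 (0.3 uM final) in pH 7.5 HEPES buffer with DTT, 10 min at room temperature; %Activity normalized to no-enzyme wells, curves fitted.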
# [6] = qHTS for differential inhibitors of proliferation of Plasmodium falciparum line Dd2 (AID 1882); settings: Potency: Plasmodium falciparum Dd2 proliferation inhibition; further: potency means the concentration at half of the fitted maximal effect; nearly all actives have a fitted effect of over 65% in size
# Procedure, shortened: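 SYBR Green DNA fluorescence (ex 485, em 535 nm) after overnight lysis quantifies parasite growth; compound exposure lasted 72 h at 37 C on infected red cells at 2.5% hematocrit, 0.3% parasitemia (final). Artemisinin 0.29 uM and vehicle wells define normalization.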
# [7] = qHTS Assay for Identifying Gametocytocidal Compounds (AID 743244); further: potency means the concentration at half of the fitted maximal effect;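 on max response: on the % scale 0 is the no-effect control and ±100 the full control effect; actives lower the fluorescent signal which means gametocytes are killed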; settings: P. falciparum 3D7 stage III-V gametocytes, alamarBlue, 72 h; max response: stronger effect = lower value
# Procedure, shortened: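 A resazurin-based viability read-out was applied to mature P. falciparum gametocytes: 72 h compound treatment, then 24 h dye incubation, with falling fluorescence signalling gametocytocidal effect.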
# [8] = NFAT Signaling Pathway (AID 444; active means well fitted curve in either direction with a large enough effect, not every such curve was filed as active; inconclusive means small, poorly fitted or top-dose-only effect, or another doubt;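 further: carbachol stimulus at about its EC50 of 1 µM final; on the % scale 0 is the no-effect control and ±100 the full control effect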); settings: Jurkat NFAT-bla M1, carbachol, beta-lactamase ratio, 5 h; at 38 µM (top of the series)
# Procedure, shortened: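 Jurkat cells carrying an NFAT-driven β-lactamase reporter and co-transfected muscarinic M1 receptor were treated with compound plus carbachol (1 uM final, an EC50 level) for 5 h at 37 °C. CCF4 loading followed for 1 h at RT; 460/530 nm ratio gave %activity.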
# [9] = Counterscreen for APE1 Inhibitors: Fluorescent Dye Displacement Validation Assay (AID 1707); further: potency means the concentration at half of the fitted maximal effect
# Procedure, shortened: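 Signal: ThO fluorescence (ex 480 nm/em 540 nm) on binding 50 nM dsDNA; displacement by test compound reduces it. Conditions: 250 nM dye, 50 mM Tris-HCl pH7.5, 2 mM MgCl2, 50mM NaCl, 0.01% Tween-20.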
# [10] = molecular target: DNA repair nuclease/redox regulator APEX1 (Homo sapiens) (UniProt P27695); assay: qHTS Validation Assay for Inhibitors of the Human Apurinic/apyrimidinic Endonuclease 1 (APE1) (AID 1705; further: potency means the concentration at half of the fitted maximal effect)
# UniProt P27695, sequence (P27695 whole entry, looked up): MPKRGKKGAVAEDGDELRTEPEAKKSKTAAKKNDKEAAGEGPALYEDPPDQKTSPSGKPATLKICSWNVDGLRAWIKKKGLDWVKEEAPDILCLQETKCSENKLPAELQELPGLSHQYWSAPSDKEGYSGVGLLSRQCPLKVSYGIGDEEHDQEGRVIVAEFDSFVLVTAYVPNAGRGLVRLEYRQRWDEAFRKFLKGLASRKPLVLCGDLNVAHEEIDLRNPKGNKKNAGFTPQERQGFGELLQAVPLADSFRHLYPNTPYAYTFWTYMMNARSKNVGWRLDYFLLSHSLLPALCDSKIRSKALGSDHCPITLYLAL
# Procedure, shortened: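 Read-out: TAMRA fluorescence (525 nm ex, 598 nm em) from cleavage of a quenched THF abasic-site duplex, 50 nM final; activity taken as intensity change between third and first of three reads 60 s apart.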
# [11] = High Content Imaging Cell-Based qHTS for Inhibitors of the mTORC1 Signaling Pathway in MEF Cells (AID 2667); further: potency means the concentration at half of the fitted maximal effect;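 on activity change, negative = inhibition: Tsc2-/- p53-/- MEFs stably re-expressing wild-type Tsc2 exposed 24 h; plate controls were DMSO wells for no effect and rapamycin control wells for full effect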
# Procedure, shortened: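 Fixed-cell imaging of phospho-S6 (Ser235/236, Alexa-488) after 24 hrs of compound treatment at 37 degree Celsius. Signal was normalized to Hoechst, and thresholds from the highest and lowest wells split cells into % active versus % non-active.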
# [12] = Cytometry Cell-Based qHTS for Inhibitors of the mTORC1 Signaling Pathway in MEF cells (AID 2668); further: potency means the concentration at half of the fitted maximal effect;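 on activity change, negative = inhibition: Tsc2-/- p53-/- mouse embryonic fibroblasts stably re-expressing wild-type Tsc2; percent cells positive for phospho-rpS6 Ser235/236 relative to propidium iodide stain; plate controls were DMSO wells for no effect and 7.5 nM rapamycin control wells for full effect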
# Procedure, shortened: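 Read-out: phospho-rpS6 Ser235/236 immunofluorescence normalized to propidium iodide intensity, scored as % active cells against a rapamycin (7.5 nM) threshold. Cells: Tsc2-/-, p53-/- MEFs stably expressing WT Tsc2, compound-treated 24 hrs at 37 degree Celsius.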
# [13] = system: Zika virus NS2B-NS3 protease (unlinked); assay: Optimization of GU AMC qHTS for Zika virus inhibitors: Unlinked NS2B-NS3 protease assay (AID 1347151); further: potency means the concentration at half of the fitted maximal effect; nearly all actives have a fitted effect of over 80% in size
# Procedure, shortened: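 Fluorescence read-out (340 nm ex / 450 nm em) of AMC peptide cleavage, taken immediately and after 15 min at room temperature (~20% conversion). Enzyme was the unlinked NS2B–NS3 complex at 25 nM in Tris pH 8.0 buffer.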
# [14] = molecular target: Tyrosine-protein phosphatase non-receptor type substrate 1 (Homo sapiens) + Leukocyte surface antigen CD47 (Homo sapiens) (UniProt P78324+Q08722); assay: CD47-SIRPalpha protein protein interaction - Alpha assay qHTS validation (AID 1347059);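 further: bead proximity luminescence from CD47 binding SIRPalpha after compound preincubation with SIRPalpha; potency means the concentration at half of the fitted maximal effect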
# UniProt P78324, sequence (P78324 whole entry, looked up, the tested form may be a part): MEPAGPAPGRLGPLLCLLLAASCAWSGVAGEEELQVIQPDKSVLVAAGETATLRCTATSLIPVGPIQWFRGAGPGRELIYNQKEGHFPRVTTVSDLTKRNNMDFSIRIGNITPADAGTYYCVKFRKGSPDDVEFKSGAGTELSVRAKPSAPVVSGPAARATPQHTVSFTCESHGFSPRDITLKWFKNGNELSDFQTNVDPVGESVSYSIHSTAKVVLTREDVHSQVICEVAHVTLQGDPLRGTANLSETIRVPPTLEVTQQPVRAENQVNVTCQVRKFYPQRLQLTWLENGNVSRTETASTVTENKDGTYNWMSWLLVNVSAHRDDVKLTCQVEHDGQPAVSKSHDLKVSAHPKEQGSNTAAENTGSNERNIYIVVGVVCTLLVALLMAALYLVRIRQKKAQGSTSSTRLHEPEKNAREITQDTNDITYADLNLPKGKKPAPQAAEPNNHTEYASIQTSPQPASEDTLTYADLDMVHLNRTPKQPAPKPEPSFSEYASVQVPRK
# UniProt P78324, sequence (Q08722 whole entry, looked up, the tested form may be a part): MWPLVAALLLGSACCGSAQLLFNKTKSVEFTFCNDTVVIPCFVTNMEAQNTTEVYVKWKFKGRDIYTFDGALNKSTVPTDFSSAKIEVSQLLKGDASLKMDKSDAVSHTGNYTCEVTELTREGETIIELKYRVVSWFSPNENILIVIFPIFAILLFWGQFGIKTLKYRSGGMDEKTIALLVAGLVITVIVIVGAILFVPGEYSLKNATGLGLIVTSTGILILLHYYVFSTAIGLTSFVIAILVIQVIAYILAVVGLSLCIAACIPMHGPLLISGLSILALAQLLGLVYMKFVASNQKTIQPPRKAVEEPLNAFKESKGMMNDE
# Procedure, shortened: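 In PBS (pH 7.4) with 0.05% IGEPAL CA-630, compound is preincubated with biotin-Avi-SIRPalpha ectodomain before His-CD47 ectodomain and affinity beads are added. Light-protected room-temperature incubations; AlphaScreen readout.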
# [15] = system: Zika virus NS2B-NS3 protease; assay: Primary screen GU AMC qHTS for Zika virus inhibitors (AID 1347154); further: nearly all actives have a fitted effect of over 70% in size; further: potency means the concentration at half of the fitted maximal effect;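 on activity change, negative = inhibition: 0% = no-inhibitor control and -100% = no-enzyme control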
# Procedure, shortened: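 Unlinked Zika NS2B hydrophilic domain/NS3 protease domain noncovalent complex (25 nM final) in 10 mM Tris-HCl pH 8.0, 0.01% Tween 20, with AMC peptide substrate. Fluorescence (ex 340, em 450 nm) change over 15 min, room temperature; percent inhibition fitted to 4-parameter Hill equation.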
# [16] = molecular target: D(1A) dopamine receptor (Homo sapiens) (UniProt P21728); assay: HTS Assay for Allosteric Agonists of the Human D1 Dopamine Receptor: Primary Screen for Potentiators (AID 488982); further: potency means the concentration at half of the fitted maximal effect
# Procedure, shortened: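 Tetracycline-induced HEK293 T-REx cells force-coupled to calcium signalling were incubated overnight at 30 C and dye-loaded at room temperature. Calcium flux over 180 s after compound addition flagged agonists; a further 180 s read after EC20 dopamine flagged potentiators.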
# [17] = Nrf2 qHTS screen for inhibitors: Validation (AID 493153; active means well fitted inhibition curve with a large enough effect in the main read-out, with a control signal flat, not every such curve was filed as active; inconclusive means small, poorly fitted or top-dose-only effect, or effect the other way, or a change in a side signal; inactive means no such curve, though single readings can be large or run the other way; further: potency means the concentration at half of the fitted maximal effect;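 on activity change, negative = inhibition: A549 cells with ARE-driven firefly luciferase reporter reporting Nrf2 activity; % of control where 0% means no effect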)
# Procedure, shortened: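 A549 ARE_Fluc, 5% FBS OPTI-MEM; cpd titration, 18-24 h, 37°C/5% CO2. Read 1: CellTiter-Fluor (Ex 405/Em 525), cytotox. Read 2: luciferase lum, Nrf2 activity.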
# [18] = qHTS Assay for Modulators of Human Peripheral Myelin Protein 22 (PMP22) Expression/Activity (AID 1967; active means well fitted curve in the direction sought with a large enough effect in the signal ratio; inconclusive means small, poorly fitted or top-dose-only effect, or effect the other way, or a change in a side signal; inactive means no such curve, though single readings can be large or run the other way; the % refers to the signal ratio;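 further: 0% = untreated cells and 100% end not stated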); settings: Cell-based PMP22 reporter, dual-color luciferase ratio, mouse Pmp22 promoter in mouse Schwann cells; activity change (ratio): at 115 µM (top of the series), 0% = compound-free control cells
# Procedure, shortened: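 Mouse MSC80 Schwann line, Pmp22 promoter–CBG68 reporter, EF-alpha–CBR internal control. 24h compound exposure, 37 °C/5% CO2, DMEM + 10% FBS. Readout: corrected green/red luminescence ratio, normalized to untreated cells; concentration-response curves fitted and classified.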
# Tags describe the fitted curve by direction and shape or compound fluorescence and quenching.
structure (smiles),measurement,setting,value
O=C1C2C=CC=CC2=NC(=S)N1CCN1CCC(=C(c2ccc(F)cc2)c2ccc(F)cc2)CC1 (centres undefined),Potency,[1],inactive
same,Potency,[2],active: 50.1 µM
same,Potency,[3],"inconclusive [inhibitor, partial curve]"
NS(=O)(=O)c1cccc2c1c([N+](=O)[O-])cc1nc(O)c(O)nc12,activity change,[4],inconclusive: -31.4%
same,Potency,[5],"inconclusive [fluorescent, side channel, partial curve]"
c1ccc2c(c1)CC(N1CCN(c3cccc4c3OCCO4)CC1)C2,Potency,[6],"inconclusive [inhibitor, partial curve]"
same,max response,[7],inactive: 9.97%
COc1cc(CC(=O)O)ccc1O,"activity change, negative = inhibition",[8],inactive: 6.22%
O=C(O)c1cc2cc(Cc3cccnc3)ccc2o1,Potency,[4],inactive
CCCn1c(=O)c2[nH]c(-c3ccc(S(=O)(=O)O)cc3)nc2n(CCC)c1=O,Potency,[9],"inconclusive [inhibitor, single point]"
same,activity change,[4],inconclusive: 30.6%
same,Potency,[1],inactive
CCCCOC(=O)NS(=O)(=O)c1sc(CC(C)C)cc1-c1ccc(Cn2c(CC)nc3c(C)cc(C)nc32)cc1,"activity change, negative = inhibition",[8],inconclusive: -58.6% [inhibitor]
same,Potency,[10],"inconclusive [inhibitor, partial curve]"
same,Potency,[6],"inconclusive [inhibitor, single point]"
same,Potency,[11],"inconclusive [falling, single point]"
same,Potency,[12],"inconclusive [falling, single point]"
same,Potency,[1],"inconclusive [inhibitor, single point]"
same,Potency,[3],"inconclusive [activator, partial curve]"
same,Potency,[7],"inconclusive [inhibitor, full curve]"
CN(C)C(=O)/N=N/C(=O)N(C)C,Potency,[10],"inconclusive [inhibitor, single point]"
same,Potency,[2],active: 31.6 µM
COc1ccc(C(=O)/C(Cc2cc(OC)c(OC)c(OC)c2)=C(\C(=O)O)c2ccc3c(c2)OCO3)cc1,Potency,[13],"inconclusive [inhibitor, partial curve, poor fit]"
O=C(O)C1=CC(=C(c2ccc(O)c(C(=O)O)c2)c2ccc(O)c(C(=O)O)c2)C=CC1=O,Potency,[10],"inconclusive [inhibitor, partial curve, poor fit]"
same,Potency,[5],active: 0.675 µM
same,Potency,[14],active: 0.464 µM
same,Potency,[13],active: 21.2 µM
O=C1NC(=O)c2c1c(-c1ccccc1)cc1[nH]c3ccc(O)cc3c21,Potency,[14],"inconclusive [inhibitor, partial curve]"
same,Potency,[15],inactive
Nc1ccc(-c2nc3ccc(-c4nc5ccc(N)cc5[nH]4)cc3[nH]2)cc1,Potency,[9],active: 25.1 µM
same,Potency,[11],inactive
same,Potency,[7],"inconclusive [inhibitor, single point]"
same,Potency,[14],"inconclusive [inhibitor, partial curve]"
same,Potency,[15],"inconclusive [inhibitor, single point]"
N[C@@H](CCC(=O)N[C@H](CSN=O)C(=O)NCC(=O)O)C(=O)O,Potency,[4],inactive
Nc1ccc2c3c(cccc13)C(=O)NC2=O,Potency,[10],"inconclusive [inhibitor, partial curve]"
same,Potency,[12],"inconclusive [falling, single point]"
same,Potency,[16],"inconclusive [activator, single point]"
same,Potency,[5],"inconclusive [fluorescent, side channel, partial curve]"
NCC(O)(CS(=O)(=O)O)c1ccc(Cl)cc1 (centres undefined),Potency,[16],inactive
same,Potency,[17],inactive
Cn1c(=O)c(-c2c(Cl)cccc2Cl)cc2cnc(Nc3ccc(N4CCOCC4)cc3)nc21,Potency,[14],"inconclusive [inhibitor, partial curve]"
CCCCS(=N)(=O)CC[C@H](N)C(=O)O (some centres undefined),Potency,[2],inactive
O=C(O)c1cc2cc(F)ccc2[nH]1,Potency,[9],"inconclusive [inhibitor, full curve, poor fit]"
C[C@H]1CC2C3CCC4=CC(=O)C=C[C@]4(C)[C@@]3(Cl)[C@@H](O)C[C@]2(C)[C@@]1(O)C(=O)CO (some centres undefined),Potency,[12],inactive
same,activity change,[4],inconclusive: -33.7%
same,Potency,[3],inactive
same,Potency,[17],active: 0.0164 µM
COc1cc(/C=C(\C#N)C(=O)c2ccc(O)c(O)c2)cc(I)c1O,Potency,[2],active: 8.91 µM and active: 8.44 µM
same,Potency,[5],"inconclusive [fluorescent, side channel, partial curve]"
O=c1cc(-c2ccccc2)oc2c(O)c(O)ccc12,Potency,[13],"inconclusive [inhibitor, partial curve]"
same,Potency,[15],"inconclusive [inhibitor, full curve]"
C=CC[C@H](N)C(=O)O,"activity change, negative = inhibition",[8],inactive: 2.66%
same,activity change (ratio),[18],inconclusive: 32.8%
